Reference: PubChem BioAssay AID624417 (National Center for Advancing Translational Sciences (NCATS), 2012)
Screen size: about 410,000 compounds; about 6,400 (1.6%) were called active. Inconclusive results, whose numbers are uncertain, are shown with a selection of clear calls. The call rests on the fitted dose curve; in most records, active means well fitted inhibition curve with a large enough effect; inconclusive means small, poorly fitted or top-dose-only effect; inactive means no such curve, though single readings can be large or run the other way. Potencies of inconclusive entries are left out as doubtful fits.

molecular target: Glucagon-like peptide 1 receptor (Homo sapiens) (UniProt P43220); experiment: qHTS of GLP-1 Receptor Inverse Agonists (Inhibition Mode); settings: HEK293 GLP-1R CRE-luciferase, luminescence, 24 h, GLP-1R form is constitutively active; activity change, negative = inhibition: at 38.3 µM (top of the series) unless noted; further: nearly all actives have a fitted effect of over 55% in size
Chain of UniProt P43220 (P43220 whole entry, looked up): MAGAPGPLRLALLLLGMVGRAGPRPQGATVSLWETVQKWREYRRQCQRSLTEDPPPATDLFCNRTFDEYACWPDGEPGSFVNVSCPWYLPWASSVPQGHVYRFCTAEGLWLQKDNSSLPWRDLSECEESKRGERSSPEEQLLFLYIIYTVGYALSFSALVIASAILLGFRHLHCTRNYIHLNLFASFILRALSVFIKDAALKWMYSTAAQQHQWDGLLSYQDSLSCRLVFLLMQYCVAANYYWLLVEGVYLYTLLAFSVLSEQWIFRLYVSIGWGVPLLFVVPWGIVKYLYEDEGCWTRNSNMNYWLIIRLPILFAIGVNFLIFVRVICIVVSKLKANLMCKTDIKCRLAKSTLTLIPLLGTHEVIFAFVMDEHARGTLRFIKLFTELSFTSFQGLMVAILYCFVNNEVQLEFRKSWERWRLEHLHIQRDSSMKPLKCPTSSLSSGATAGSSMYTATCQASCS
Method in brief: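 Luminescence readout: a drop in cAMP-driven luciferase signal flags inverse agonism at a constitutively active GLP-1R stably expressed in HEK293. Compound exposure lasted 24 hr at 37 deg C, 5% CO2.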
On the % scale 0 is the no-effect control and ±100 the full control effect; potency means the concentration at half of the fitted maximal effect; tags describe the fitted curve by direction and shape.

SMILES	activity change, negative = inhibition	Potency
Cc1ccc(Nc2nc(N)nc(CSc3nccn3C)n2)c(C)c1	inactive: 9.78%	–
O=C(CC1Sc2ccccc2NC1=O)NNc1cc(Cl)ccc1Cl (stereo not drawn)	–	inconclusive [inhibitor, full curve, poor fit]
CC1CCN(S(=O)(=O)c2ccc3c(c2)N(CC(=O)NCCCN2CC(C)CC(C)C2)C(=O)CS3)CC1 (stereo not drawn)	–	inconclusive [inhibitor, partial curve, poor fit]
CC(C)CCn1nnnc1CN1CCN(c2ccc(F)cc2)CC1	inactive: -18.8%	–
CC(C(=O)Nc1ccccc1)N(C)Cc1cccs1 (stereo not drawn)	–	inconclusive [inhibitor, partial curve, poor fit]
COc1ccc2c(c1)C1(Nc3ccccc3-c3nc4ccccc4n31)C(=O)N2 (stereo not drawn)	–	inconclusive [inhibitor, single point]
CC(C)CNC(=O)C1(C)CCCCCN1C(=O)c1cc2ccccc2s1 (stereo not drawn)	–	inconclusive [inhibitor, single point]
COc1ccc(C(CNC(=O)c2ccc(C)c(S(=O)(=O)N3CCCCC3)c2)N2CCCC2)cc1 (stereo not drawn)	–	inconclusive [inhibitor, partial curve, poor fit]
CSc1ncccc1C(=O)N1CCCC(N2CCN(c3ccccc3C)CC2)C1 (stereo not drawn)	–	inconclusive [inhibitor, single point]
O=C(NCCN1C(=O)S/C(=C\c2ccccc2Cl)C1=O)C1=COCCO1	inactive: -15%	–
O=C(NCCCN1CCN(c2ccccc2F)CC1)C1COc2ccccc2C1 (stereo not drawn)	inactive: -19%	–
CCC(Oc1ccc(F)cc1)C(=O)N1CCCCCCC1 (stereo not drawn)	–	inconclusive [inhibitor, single point]
COc1cc2c(cc1NC(=S)Nc1ccccc1C)oc1ccccc12	–	inconclusive [inhibitor, single point]
COc1ccccc1N1CCN(C(CNS(=O)(=O)c2cccs2)c2cccnc2)CC1 (stereo not drawn)	inactive: -9.63%	–
CC(=O)Oc1ccc2ccccc2c1C(NC(=O)Cc1ccccc1)c1ccccc1 (stereo not drawn)	–	inconclusive [inhibitor, partial curve, poor fit]
O=C(CCN1C(=O)/C(=C/c2ccc(Cl)cc2)SC1=S)NCCCn1ccnc1	–	inconclusive [inhibitor, partial curve]
Cc1ccc(NS(=O)(=O)c2ccc(C)c(C(=O)NCC(c3ccccc3)N(C)C)c2)cc1 (stereo not drawn)	–	inconclusive [inhibitor, partial curve, poor fit]
O=C(CCCN1CCC(O)(c2cccc(C(F)(F)F)c2)CC1)c1ccc(F)cc1	–	inconclusive [inhibitor, single point]
O=C(Nc1ccccc1F)c1ccccc1-c1ccccc1	–	inconclusive [inhibitor, single point]
O=C(Cn1c(CN2CCCCC2)nc2ccccc2c1=O)Nc1ccccc1	–	inconclusive [inhibitor, single point]
COc1cccc(/C=C/C(=O)OCC(=O)N2c3ccccc3CC2C)c1 (stereo not drawn)	–	inconclusive [inhibitor, partial curve, poor fit]

SMILES	activity change, negative = inhibition	Potency
CN(C(=S)Nc1ccc(Oc2ccccc2)cc1)C1CCCCC1	–	inconclusive [inhibitor, partial curve, poor fit]
COc1ccc2c(c1)OC[C@H]1[C@H]2N2C(=O)CN(Cc3ccc(C)cc3)C(=O)[C@@]2(C)[C@H]1c1ccccc1	–	inconclusive [inhibitor, single point]
O=C(Nc1ccc(Cl)cc1)c1cccc(OC(=S)N2CCOCC2)c1	–	inconclusive [inhibitor, partial curve, poor fit]
CCOC(=O)c1cccc(NC(=O)Nc2ccc3c(c2)N(C)C(=O)c2ccccc2S3)c1	–	inconclusive [inhibitor, partial curve]
O=C(NNC(=O)c1cc(OCC(F)(F)F)ccc1OCC(F)(F)F)c1ccc(Cl)c(Cl)c1	–	inconclusive [inhibitor, full curve, poor fit]
O=[N+]([O-])c1cc(/C=N\O)ccc1Oc1ccc(F)cc1	–	inconclusive [inhibitor, single point]
O=C(Nc1ccc(F)c(F)c1)C1CCN(S(=O)(=O)c2cccc3nonc23)CC1	–	inconclusive [inhibitor, single point]
CCSc1ncc(Cl)c(C(=O)N(Cc2ccc(C(C)(C)C)cc2)C2CCS(=O)(=O)C2)n1 (stereo not drawn)	–	inconclusive [inhibitor, partial curve, poor fit]
O=C(/C=C/c1cc2c(cc1Br)OCO2)NCc1ccc(F)cc1	inactive: -8.68%	–
O=C(CN(c1ccc(F)cc1)S(=O)(=O)c1ccccc1)NC1CC2CCC1C2 (stereo not drawn)	–	inconclusive [inhibitor, single point]
COc1ccc2c(CC(=O)Nc3c(C)n(C)n(-c4ccccc4)c3=O)coc2c1	inactive: 13.2%	–
COc1cc(C(=O)NCC(c2cccs2)N2CCc3ccccc32)cc(OC)c1OC (stereo not drawn)	–	inconclusive [inhibitor, partial curve, poor fit]
COc1cc2c(cc1OC)-c1cc(Nc3ccc(C)cc3)nc(=O)n1CC2	inactive: 105%	–
CCCCNC(=O)c1onc(CSc2ccc(Cl)cc2)c1C(=O)NCCCC	–	inconclusive [inhibitor, partial curve, poor fit]
CCOc1cc(C)c(C(C)C)cc1S(=O)(=O)n1ccnc1CC	–	inconclusive [inhibitor, single point]
c1ccc(CCCNCC2COc3ccccc3O2)cc1 (stereo not drawn)	–	inconclusive [inhibitor, single point]
CCCCCCN1C[C@@H](n2cc(C3CC3)nn2)[C@H](O)C[C@@H]1c1ccccc1	–	inconclusive [inhibitor, partial curve]
CCC(Oc1cc(Cl)ccc1Cl)C(=O)NN1C(=O)C2C3CCC(C3=C(C)C)C2C1=O (stereo not drawn)	–	inconclusive [inhibitor, full curve, poor fit]
COCCN(C(=S)Nc1ccc(Cl)cc1OC)C1CCN(C(C)=O)CC1	–	inconclusive [inhibitor, single point]
COc1ccccc1CNC(=O)C1CCN(Cc2cc3ccccc3n2Cc2cccc(C)c2)CC1	–	inconclusive [inhibitor, partial curve, poor fit]
Cc1[nH]c(C)c(S(=O)(=O)Nc2ccc(F)cc2Cl)c1C(=O)N1CCCC1	–	inconclusive [inhibitor, partial curve, poor fit]

SMILES	activity change, negative = inhibition	Potency
Cc1ccc(S(=O)(=O)NC2CCCCC2)c2nsnc12	–	inconclusive [inhibitor, single point]
CC1CCCN(CC(O)COCC2COc3ccccc3O2)C1 (stereo not drawn)	inactive: -14%	–
CC(C)(C)S(=O)(=O)N1C[C@H]2CC/C=C\C/C=C\2[C@@H]1CCO	–	active: 2.82 µM
COc1ccc(/C=N/NC(=O)c2ccn[nH]2)cc1COc1ccc(F)cc1	–	inconclusive [inhibitor, partial curve, poor fit]
CCCCCCN1C[C@H](O)[C@@H](n2cc(C3CC3)nn2)C[C@@H]1c1ccccc1	–	inconclusive [inhibitor, partial curve, poor fit]
C/C=C/c1ccc(OCC(O)CNCC(c2ccc(OC)cc2)N(C)C)c(OC)c1 (stereo not drawn)	–	inconclusive [inhibitor, partial curve, poor fit]
COc1cc2c(cc1NC(=O)CSc1nc3cc(Cl)ccc3s1)oc1ccccc12	inactive: 16.1%	–
C/C=C/c1ccc(OCCCCN2CCN(CC)CC2)c(OC)c1	–	inconclusive [inhibitor, full curve, poor fit]
O=C(Nc1ccccc1N1CCN(C(=O)c2ccccc2)CC1)c1ccccc1Cl	–	inconclusive [inhibitor, partial curve]
Cc1ccc(NC(=O)C2CCN(C(=O)c3cnn(-c4ccccc4)c3-n3cccc3)CC2)cc1	inactive: -29.8%	–
CCCC(=O)N1CCC1(C)C(=O)NCc1ccccc1SC (stereo not drawn)	inactive: -21%	–
COc1ccc(S(=O)(=O)N2CCCC2C(=O)Nc2nc3c(s2)CCCC3)cc1 (stereo not drawn)	–	inconclusive [inhibitor, single point]
CC(C)(C)Nc1nc(NN)nc(NC(C)(C)C)n1	–	inconclusive [inhibitor, partial curve, poor fit]
Cn1nnnc1SCC(=O)N1c2ccccc2Sc2ccccc21	–	inconclusive [inhibitor, single point]
COc1ccc(Cl)cc1NC(=O)Cn1nc(C(F)(F)F)c2c1CCC2	–	inconclusive [inhibitor, single point]
CC(CCc1ccccc1)NC(=O)CN(C)Cc1ccc(F)cc1 (stereo not drawn)	–	inconclusive [inhibitor, partial curve, poor fit]
CCCN1C2CCCC1CC(NC(=O)Nc1ccc(C(C)C)cc1)C2 (stereo not drawn)	–	inconclusive [inhibitor, partial curve, poor fit]
CCC1CN(C(=O)N2CCC(C(=O)N3CCN(c4ccc(F)cc4)CC3)CC2)c2ccccc2O1 (stereo not drawn)	–	inconclusive [inhibitor, single point]
CCOc1ccc(-n2cc(C(=O)c3cc(Cl)ccc3O)cc(C#N)c2=O)cc1	inactive: -22.2%	–
CC1(C(=O)Nc2c(F)c(F)c(F)c(F)c2F)CC1(Br)Br (stereo not drawn)	–	inconclusive [inhibitor, single point]
CCSc1ncc(/C=N/Nc2ccc(Cl)cc2)n1C	–	inconclusive [inhibitor, full curve]
